Experimental data published in PubChem BioAssay AID1346428 (National Center for Advancing Translational Sciences (NCATS), 2018).
About 1,200 (2.5%) of roughly 48,000 compounds were called active. About 2% were inconclusive and are not listed.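 How the source made its calls: active means activation of at least 60% and not above a set upper limit (about 1 call in 100 departs from these limits); inconclusive means activation of 40% to 60%, or above that upper limit; inactive means activation under 40%.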 The list shows a part of the results.

Target: Probable G-protein coupled receptor 32 (Homo sapiens) (UniProt O75388)
Assay: qHTS for Agonists of Human Resolvin D1 Receptor DRV1; further: 0% is about no effect
Settings: CHO-K1 GPR32 beta-arrestin PathHunter luminescence, 90 min; at 76.9 µM; stronger effect = higher value; zero percent set by DMSO-only wells
In short: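 Agonism was scored by beta-Gal fragment complementation (chemiluminescent read, 1 h detection at ambient temperature) reporting beta-arrestin binding to GPR32 in engineered CHO-K1 cells. Compound treatment lasted 90 min at 37 C, normalized to a DMSO basal control.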

UniProt O75388, sequence (O75388 whole entry, looked up): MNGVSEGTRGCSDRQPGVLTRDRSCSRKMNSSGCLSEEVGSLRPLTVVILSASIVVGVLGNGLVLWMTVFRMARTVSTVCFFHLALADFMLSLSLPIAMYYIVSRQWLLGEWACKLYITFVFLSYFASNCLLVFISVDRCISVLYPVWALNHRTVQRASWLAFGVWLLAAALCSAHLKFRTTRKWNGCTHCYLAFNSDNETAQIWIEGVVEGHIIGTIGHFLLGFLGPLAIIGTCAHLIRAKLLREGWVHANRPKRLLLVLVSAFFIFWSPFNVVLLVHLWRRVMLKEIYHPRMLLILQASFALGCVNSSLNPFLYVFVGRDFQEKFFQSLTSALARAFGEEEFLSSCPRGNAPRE

Which activation does the source give for O=C(NCCCN1CCCCC1)c1[nH]c2ccccc2c1Sc1ccc(Cl)cc1 here?
Its activation is inactive: -22.9%.

How did the activation turn out when Cc1ccc(NC(=O)C2CCN(S(=O)(=O)c3ccc4c(c3)CCCN4C(=O)C3CCC3)CC2)cc1 was run?
The activation was inactive: -11.2%.

With O=C(CCS(=O)(=O)c1nc(-c2cccs2)cc(C(F)(F)F)n1)Nc1ccc(F)c(Cl)c1 as the compound, how does the activation read?
The activation was inactive: -35.9%.

With Cc1c(Cl)cccc1-n1ncc(C(=O)N2CCC(C)CC2)c1C1CCN(C(=O)OC(C)(C)C)CC1 as the compound, how does the activation read?
Its activation is inactive: -5.45%.

How did the activation turn out when Cc1cc(C)nc(NS(=O)(=O)c2ccc(NC(=O)c3nc(SC(C)C)ncc3Cl)cc2)n1 was run?
Its activation is inactive: -2.99%.

For CC(=O)c1ccc(N2CCN(C(=O)c3cc4c(s3)-c3ccccc3OC4)CC2)cc1, which activation is on record?
The activation was inactive: 17.5%.

For CC(C)C(NS(=O)(=O)c1ccc2c(c1)oc(=O)n2C)C(=O)NCc1ccccc1 (configuration not stated), which activation is on record?
The activation was inactive: -0.244%.

With COc1ccc(NC(=O)CSc2nc(-c3ccccc3)[nH]c2-c2ccccc2)cc1OC as the compound, how does the activation read?
The activation was inactive: 10.8%.

CN(C(=O)C1CCN(c2ncnc3c2nc2n3CCCCC2)CC1)c1ccccc1F was tested. Which activation did it give?
The activation was inactive: -2.77%.

Which activation does the source give for CCN(CC)c1ccc(NC(=O)CN2CCN(S(=O)(=O)c3cc(Cl)ccc3OC)CC2)cc1 here?
Its activation is inactive: 4.6%.

Which activation does the source give for Cc1oc(-c2ccc(C(=O)NCc3ccccc3F)cc2)nc1COc1ccccc1 here?
The activation was inactive: -8.97%.

For COc1cccc(NC(=O)Cn2nnc(C(=O)NCCc3ccccc3)c2N)c1, which activation is on record?
Its activation is inactive: -13.3%.

With Cn1cnc2c(=O)oc3ccc(S(=O)(=O)N4CCN(c5ccccc5F)CC4)cc3c21 as the compound, how does the activation read?
The activation was inactive: -1.5%.

O=C(Nc1cccc(C(=O)OCc2cc(=O)n3c4c(sc3n2)CCCC4)c1)c1cccc(Cl)c1 was tested. Which activation did it give?
Its activation is inactive: -11.1%.

Which activation does the source give for COc1ccc(CCn2c(=O)c3cccnc3n(CC(=O)Nc3ccc(C)cc3C)c2=O)cc1OC here?
Its activation is inactive: -20.9%.

For Cn1cc(C(=O)Nc2ccc(C#N)cc2)c2ccccc2c1=O, which activation is on record?
The activation was inactive: -30.4%.

With Cc1nc(-c2ccc(S(=O)(=O)N(Cc3ccccc3)C(C)C)cc2)co1 as the compound, how does the activation read?
The activation was inactive: -9.4%.

Which activation does the source give for CC(C)OCCCNC(=O)CCCn1c(SCC(N)=O)nc2c(sc3ccccc32)c1=O here?
Its activation is inactive: -19.4%.

How did the activation turn out when CCOc1ccc(CCNC(=O)c2ccc3c(c2)nc2n3CCOC2)cc1OCC was run?
The activation was inactive: -0.348%.

How did the activation turn out when O=C(CSc1nc2c([nH]c3ccccc32)c(=O)n1-c1ccc(F)cc1)NCc1ccc(F)cc1 was run?
The activation was inactive: -13.2%.

How did the activation turn out when Cc1ccc(Cl)cc1NC(=O)C1CCN(C(=O)c2cnn(-c3ccccc3)c2-n2cccc2)CC1 was run?
The activation was inactive: 17.4%.

Which activation does the source give for Cc1oc(-c2ccccc2Cl)nc1CS(=O)CC(=O)NCc1ccccc1Cl (configuration not stated) here?
Its activation is inactive: -12.4%.

For COc1ccc(NC(=O)CN2CCN(CC(=O)Nc3ccccc3F)CC2)cc1OC, which activation is on record?
The activation was inactive: -2.76%.

Which activation does the source give for O=S(=O)(c1ccc(F)cc1)N(Cc1nc(-c2ccccc2)no1)C1CCCCC1 here?
The activation was inactive: -28%.

How did the activation turn out when CCOC(=O)c1ccc(NC(=O)COc2cccc3c(=O)n(C)ccc23)cc1 was run?
The activation was active: 68.7%.

How did the activation turn out when Cc1ccc(CN(Cc2cccn2-c2nnc(N3CCCC3=O)s2)C(=O)Nc2ccc(F)cc2)cc1 was run?
The activation was inactive: -11.5%.

How did the activation turn out when O=C(COc1ccc(F)cc1)Nc1ccc(C(=O)OCc2cc(=O)n3nc(C4CC4)sc3n2)cc1 was run?
The activation was inactive: 2.38%.

CCOc1ccc(NC(=O)N2CCC(c3ccc(C)cc3)C2)cc1 (configuration not stated) was tested. Which activation did it give?
Its activation is inactive: -3.44%.

For Cc1cc(Cl)ccc1OCC(=O)N1CCC(c2nc3ccccc3o2)CC1, which activation is on record?
Its activation is inactive: 13.1%.

With CO/N=C(\C(=O)N[C@@H]1C(=O)N2C(C(=O)O)=C(COC(C)=O)CS[C@H]12)c1csc(N)n1 as the compound, how does the activation read?
Its activation is inactive: -1.75%.

Which activation does the source give for COC(=O)c1ccc(NC(=O)C(=O)NCCc2csc(-c3ccc(C(F)(F)F)cc3)n2)cc1 here?
Its activation is inactive: 0.839%.

How did the activation turn out when COc1ccccc1CNC(=O)CSCc1nc(-c2ccc(OC)c(OC)c2)oc1C was run?
The activation was inactive: -7.03%.

Which activation does the source give for Cc1ccc(-n2nc(C(=O)Nc3ccc(Br)cc3C)c(=O)n(C)c2=O)cc1 here?
Its activation is inactive: 4.81%.

For CCOc1ccc(NC(=O)c2sc3nc4c(cc3c2N)CN(Cc2ccccc2)CC4)cc1, which activation is on record?
The activation was inactive: 5.61%.

How did the activation turn out when CCCn1c2ccccc2c2cnn(CC(=O)NCc3ccc(OC)cc3)c(=O)c21 was run?
The activation was inactive: -7.64%.

For COc1ccc(OC)c(NC(=O)CCn2cccn2)c1, which activation is on record?
The activation was inactive: 2.5%.

With Cc1ccc(Cn2ccnc2SCC(=O)Nc2ccccc2C(F)(F)F)cc1 as the compound, how does the activation read?
Its activation is inactive: -16.7%.

For COc1ccccc1CNC(=O)C1CCN(S(=O)(=O)c2ccc3[nH]c(=O)ccc3c2)CC1, which activation is on record?
The activation was inactive: -0.274%.

For CCOC(=O)c1ccccc1NC(=O)NCc1cccn1Cc1ccc(F)cc1, which activation is on record?
The activation was inactive: -25.9%.

For Cc1ccccc1Cn1nc(C)c(NC(=O)c2cc(CC(C)C)on2)c1C, which activation is on record?
The activation was active: 63.8%.

How did the activation turn out when COc1cc(OC)c(NC(=O)Cn2c(SCc3ccccc3F)nc3cccnc32)cc1Cl was run?
Its activation is inactive: -5.03%.

For O=C1CC(c2cccc(Cl)c2Cl)c2cc3c(cc2N1)OCCO3 (configuration not stated), which activation is on record?
The activation was inactive: 15.1%.

Which activation does the source give for Cc1ccccc1N=Nc1ccc(N=Nc2c(O)ccc3ccccc23)c(C)c1 here?
The activation was inactive: 7.05%.

Which activation does the source give for CCOc1ccc(NC(=O)Cn2c(=O)n(Cc3ccco3)c(=O)c3ccc(C(=O)NC4CCCC4)cc32)cc1 here?
The activation was inactive: -5.99%.

For CCc1nn(CC(=O)N2CCN(c3cccc(Cl)c3)CC2)c(=O)c2cc3sccc3n12, which activation is on record?
The activation was inactive: -10.8%.

How did the activation turn out when CC(=O)c1ccc(N2CCN(c3nc4ccccc4c4nc(-c5cccc(C)c5)nn34)CC2)cc1 was run?
Its activation is inactive: -11.3%.

How did the activation turn out when CCOc1ccc(NC(=O)Cn2nc(SC)c(S(=O)(=O)c3ccccc3)c2N)cc1 was run?
The activation was inactive: 38.2%.

For CC(NC(=O)c1cc2ccccc2o1)c1ccccc1 (configuration not stated), which activation is on record?
Its activation is inactive: 23.5%.

Which activation does the source give for CCC(=O)N1CCc2cc(CNC(=O)c3ccc(C#N)cc3)ccc21 here?
The activation was inactive: -14.3%.

COc1cc(OC)cc(C(=O)Nc2ccc3c(c2)OCCO3)c1 was tested. Which activation did it give?
Its activation is inactive: -8.26%.

Which activation does the source give for O=C(CNC(=O)c1ccccc1F)OCc1cc(=O)n2nc(C3CC3)sc2n1 here?
Its activation is inactive: 3.99%.

How did the activation turn out when CCOc1ccccc1Nc1nnc(-c2cc3cc(Cl)ccc3oc2=O)s1 was run?
Its activation is inactive: -4.35%.

CCCn1nc(NC(=O)c2cccc(Cl)c2)c2cc3cccc(C)c3nc21 was tested. Which activation did it give?
The activation was inactive: -0.271%.

With COc1ccc(-c2nc3sc(CCNC(=O)C(=O)Nc4ccc(C)c(F)c4)c(C)n3n2)cc1 as the compound, how does the activation read?
The activation was inactive: -5.36%.

CCOc1ccc(NC(=O)CSC2=Nc3ccccc3C3=NC(Cc4ccccc4)C(=O)N23)cc1 (configuration not stated) was tested. Which activation did it give?
The activation was inactive: -4.9%.

With Cc1ccc(NC(=O)Cn2c(-c3nonc3N)nc3ccccc32)cc1C as the compound, how does the activation read?
The activation was inactive: -36.7%.

For COc1ccccc1CN1CCN(C2CCN(C(=O)Nc3ccccc3)CC2)C(=O)C1=O, which activation is on record?
Its activation is inactive: -5.55%.

How did the activation turn out when CCc1ccc(S(=O)(=O)c2cn(C)c3cc(F)c(F)cc3c2=O)cc1 was run?
The activation was inactive: 4.2%.

Cc1ccccc1NC(=O)CCNC(=O)Cn1ccc2ccccc2c1=O was tested. Which activation did it give?
Its activation is inactive: -3.38%.

For CC(C)(C)C(=O)Nc1cccc(C(=O)OCc2cc(=O)n3nc(C4CC4)sc3n2)c1, which activation is on record?
Its activation is inactive: 8.03%.

For CC(Nc1ccc(-c2nc(-c3ccco3)no2)cc1[N+](=O)[O-])c1ccccc1 (configuration not stated), which activation is on record?
Its activation is inactive: -14.5%.

With CCS(=O)(=O)c1oc(-c2ccc(F)cc2)nc1S(=O)(=O)c1ccc(Br)cc1 as the compound, how does the activation read?
Its activation is inactive: -6.37%.

For COc1ccccc1N1CCN(S(=O)(=O)CCNC(=O)C2CC(=O)N(c3ccccc3)C2)CC1 (configuration not stated), which activation is on record?
Its activation is inactive: -1.38%.

Which activation does the source give for COc1cc(NC(=O)c2cc3ccc4cccnc4c3[nH]2)cc(OC)c1OC here?
The activation was inactive: -6.07%.

How did the activation turn out when CCOC(=O)c1ccc(NC(=O)CC2C(=O)N(c3ccc(C)cc3)C(=O)N2C2CCCC2)cc1 (configuration not stated) was run?
Its activation is inactive: -30.9%.

For CCOC(=O)N1CCc2c(sc(NCc3sccc3C)c2C(=O)Nc2cc(Cl)ccc2OC)C1, which activation is on record?
Its activation is inactive: -3.69%.

How did the activation turn out when CCS(=O)(=O)c1nc(S(=O)(=O)c2ccc(C)cc2)c(NCC(C)C)s1 was run?
The activation was inactive: -18.6%.

COC(=O)CN1C(=O)CSc2ccc(S(=O)(=O)Nc3c(C)cc(C)cc3C)cc21 was tested. Which activation did it give?
The activation was inactive: -12.3%.

How did the activation turn out when CCOC(=O)c1ccc(NC(=O)CSc2nc(-c3cccs3)cc(C(F)(F)F)c2C#N)cc1 was run?
The activation was inactive: -11.1%.

How did the activation turn out when Cc1ccc(NC(=O)N2CCN(Cc3nc4ccc(C)cc4o3)CC2)c(Cl)c1 was run?
Its activation is inactive: 3.49%.

How did the activation turn out when CC(=O)C1=C(c2ccc(Cl)c(Cl)c2)N(C(C)=O)n2cnnc2S1 was run?
The activation was inactive: 2.38%.

O=C1CN(C(=O)COc2ccc(Cl)cc2)C(c2ccc(F)cc2)c2cc(Br)ccc2N1 (configuration not stated) was tested. Which activation did it give?
The activation was inactive: -26.8%.

With COC(=O)c1c(SCC(=O)Nc2cccc(Cl)c2C)[nH]c2ccccc2c1=O as the compound, how does the activation read?
The activation was inactive: -16.7%.

For CN(C(=O)c1c2c(nc3ccccc13)C(=O)N(C1CCCCC1)C2)c1ccc(F)cc1, which activation is on record?
Its activation is inactive: -10.4%.

How did the activation turn out when Cc1ccc(S(=O)(=O)NCCc2csc3nc(-c4ccccc4F)nn23)cc1C was run?
The activation was active: 105%.

With Cc1ccc(C)c(N2CCN(c3nc4ccc(Cl)cc4n4cnnc34)CC2)c1 as the compound, how does the activation read?
The activation was inactive: -5.84%.

For CCOC(=O)c1c(C)oc2ncnc(N3CCN(c4ccccc4)CC3)c12, which activation is on record?
The activation was inactive: -32.5%.

With CC(NC(=O)C1CCN(S(=O)(=O)c2ccc3c(c2)oc(=O)n3C)CC1)c1ccccc1 (configuration not stated) as the compound, how does the activation read?
The activation was inactive: -0.365%.

Which activation does the source give for O=[N+]([O-])c1ccc(S(=O)(=O)N2CCn3cccc3C2c2ccccc2F)cc1 (configuration not stated) here?
Its activation is inactive: 6.22%.

CC(C)(C)OC(=O)N1CCC(c2c(C(=O)N3CCC(c4ccccc4)C3)cnn2-c2ccc(Cl)cc2)CC1 (configuration not stated) was tested. Which activation did it give?
Its activation is inactive: -11.7%.

With COc1cccc(-c2nc(SCc3ccc(C)cc3)n3[nH]c(=O)cc3n2)c1 as the compound, how does the activation read?
The activation was inactive: -7.98%.

Which activation does the source give for COc1ccccc1-c1nc(S(=O)(=O)c2ccccc2)c(N2CCC(C)CC2)o1 here?
Its activation is inactive: 4.09%.
